{
  "source": "paper PMC10185812",
  "key": {"[1]": {"molecular_target": "T1, NEK1 (endogenous) (human (endogenous in ARPE-19, HeLa, HEK293, U2-O-S)) (UniProt Q96PY6)", "T1 sequence": "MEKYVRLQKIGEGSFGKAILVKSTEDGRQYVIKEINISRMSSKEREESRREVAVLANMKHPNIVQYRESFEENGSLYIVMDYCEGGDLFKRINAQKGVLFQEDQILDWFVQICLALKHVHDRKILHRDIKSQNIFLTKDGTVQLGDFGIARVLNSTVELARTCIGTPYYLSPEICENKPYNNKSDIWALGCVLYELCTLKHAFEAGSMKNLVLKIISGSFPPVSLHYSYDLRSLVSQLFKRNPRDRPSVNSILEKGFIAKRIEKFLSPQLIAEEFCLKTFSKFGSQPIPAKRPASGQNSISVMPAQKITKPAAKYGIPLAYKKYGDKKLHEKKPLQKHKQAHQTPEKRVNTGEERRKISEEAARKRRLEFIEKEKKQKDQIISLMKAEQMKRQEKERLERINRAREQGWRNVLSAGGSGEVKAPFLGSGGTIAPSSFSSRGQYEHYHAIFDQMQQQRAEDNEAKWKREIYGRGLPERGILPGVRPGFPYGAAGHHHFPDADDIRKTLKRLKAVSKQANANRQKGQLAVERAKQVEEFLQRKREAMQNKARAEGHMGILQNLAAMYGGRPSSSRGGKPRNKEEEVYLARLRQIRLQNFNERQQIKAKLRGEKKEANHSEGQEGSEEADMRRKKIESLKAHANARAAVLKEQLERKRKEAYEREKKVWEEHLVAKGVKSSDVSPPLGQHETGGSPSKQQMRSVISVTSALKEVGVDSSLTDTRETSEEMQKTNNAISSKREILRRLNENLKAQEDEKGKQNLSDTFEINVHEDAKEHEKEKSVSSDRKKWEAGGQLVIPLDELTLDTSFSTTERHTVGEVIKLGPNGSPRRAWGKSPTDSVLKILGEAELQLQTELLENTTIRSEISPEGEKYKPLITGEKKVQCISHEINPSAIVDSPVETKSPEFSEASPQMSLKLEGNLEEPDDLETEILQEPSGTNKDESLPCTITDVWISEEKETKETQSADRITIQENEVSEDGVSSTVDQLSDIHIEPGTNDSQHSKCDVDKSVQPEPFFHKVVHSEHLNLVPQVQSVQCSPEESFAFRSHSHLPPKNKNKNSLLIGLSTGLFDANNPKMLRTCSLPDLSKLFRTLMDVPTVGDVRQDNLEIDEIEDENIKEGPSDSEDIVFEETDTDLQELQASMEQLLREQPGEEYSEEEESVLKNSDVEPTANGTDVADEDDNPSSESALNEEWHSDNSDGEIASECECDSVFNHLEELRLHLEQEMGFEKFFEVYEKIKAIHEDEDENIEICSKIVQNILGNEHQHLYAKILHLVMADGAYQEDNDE", "assay": "SEC; total extracts of ARPE-19 cells (parental, NEK1-KO, C21ORF2-KO) on a Superose 6 Increase 10/300 column; fractions immunoblotted"}, "[2]": {"molecular_target": "T1, NEK1 (endogenous) (human (endogenous in ARPE-19, HeLa, HEK293, U2-O-S))", "assay": "co-IP; HeLa, HEK293 and U2-O-S cell lysates; immunoprecipitation with in-house sheep anti-C21ORF2 or anti-NEK1 antibodies (sheep IgG beads as control); immunoblotting"}, "[3]": {"molecular_target": "T1, NEK1 (endogenous) (human (endogenous in ARPE-19, HeLa, HEK293, U2-O-S))", "assay": "co-IP; ARPE-19 cell extracts; immunoprecipitation with in-house sheep antibodies against NEK1 or C21ORF2 (sheep IgG as control); 4°C; washes with 50 mM Tris pH 7.4, 500 mM NaCl, 1% Triton X-100; immunoblotting"}, "[4]": {"molecular_target": "T2, NEK1 D1277A (lentiviral, CMV promoter, in NEK1-KO cells) (human) (UniProt Q96PY6)", "T2 sequence": "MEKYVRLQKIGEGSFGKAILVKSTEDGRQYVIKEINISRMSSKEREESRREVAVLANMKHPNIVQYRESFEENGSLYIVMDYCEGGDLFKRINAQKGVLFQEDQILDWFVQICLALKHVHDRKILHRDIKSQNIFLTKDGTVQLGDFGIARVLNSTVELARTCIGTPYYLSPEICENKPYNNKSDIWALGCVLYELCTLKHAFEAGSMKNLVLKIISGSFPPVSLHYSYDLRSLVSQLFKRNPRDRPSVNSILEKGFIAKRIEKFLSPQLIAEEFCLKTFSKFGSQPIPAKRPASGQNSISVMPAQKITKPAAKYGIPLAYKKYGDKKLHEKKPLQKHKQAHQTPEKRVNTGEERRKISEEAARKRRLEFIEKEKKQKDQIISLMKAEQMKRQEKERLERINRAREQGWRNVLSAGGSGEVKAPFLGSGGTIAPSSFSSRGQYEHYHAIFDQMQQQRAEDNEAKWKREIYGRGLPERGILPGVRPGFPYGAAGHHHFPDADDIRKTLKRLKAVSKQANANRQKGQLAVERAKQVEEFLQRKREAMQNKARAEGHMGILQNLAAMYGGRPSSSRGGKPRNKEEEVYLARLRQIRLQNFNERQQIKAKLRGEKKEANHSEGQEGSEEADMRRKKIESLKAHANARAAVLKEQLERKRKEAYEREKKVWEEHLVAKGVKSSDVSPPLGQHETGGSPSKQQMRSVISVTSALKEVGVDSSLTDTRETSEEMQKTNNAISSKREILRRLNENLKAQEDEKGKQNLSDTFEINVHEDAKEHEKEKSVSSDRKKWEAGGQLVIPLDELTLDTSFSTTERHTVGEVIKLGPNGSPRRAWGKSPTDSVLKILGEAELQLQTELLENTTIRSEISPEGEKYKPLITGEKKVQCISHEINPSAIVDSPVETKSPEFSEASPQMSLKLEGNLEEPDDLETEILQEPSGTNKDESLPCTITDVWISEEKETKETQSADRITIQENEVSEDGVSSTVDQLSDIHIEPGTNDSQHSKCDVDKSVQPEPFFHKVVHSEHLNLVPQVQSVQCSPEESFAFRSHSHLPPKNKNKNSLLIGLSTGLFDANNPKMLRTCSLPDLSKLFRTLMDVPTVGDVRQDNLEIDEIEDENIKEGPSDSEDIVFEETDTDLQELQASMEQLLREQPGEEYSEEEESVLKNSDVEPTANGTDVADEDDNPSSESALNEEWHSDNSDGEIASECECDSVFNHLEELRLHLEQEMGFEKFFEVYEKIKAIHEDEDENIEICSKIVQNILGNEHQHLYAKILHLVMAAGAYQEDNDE", "assay": "co-IP; NEK1-KO or C21ORF2-KO ARPE-19 cells transduced with lentivirus for WT or mutated NEK1 (CMV promoter) or C21ORF2 (UbC promoter); immunoprecipitation with antibodies against NEK1 or C21ORF2; immunoblotting"}, "[5]": {"molecular_target": "T1, NEK1 (endogenous) (human (endogenous in ARPE-19, HeLa, HEK293, U2-O-S))", "assay": "co-IP; pooled gel filtration fractions of ARPE-19 extract; three rounds of immunodepletion with antibodies against NEK1 or C21ORF2 or sheep IgG; 4°C; washes with 50 mM Tris pH 7.4, 500 mM NaCl, 1% Triton X-100; beads and supernatants immunoblotted"}},
  "note": "These are yes or no findings as the source states them, for the method shown. For some assays here: Binding seen in cells or lysates may run through a third protein. Some results given as binding are weak or reduced against the parent protein; the word gives no strength.",
  "data": [
    {"binder": "C21ORF2 (endogenous) (protein, UniProt O43822-1 1-256) MKLTRKMVLTRAKASELHSVRKLNCWGSRLTDISICQEMPSLEVITLSVNSISTLEPVSRCQRLSELYLRRNRIPSLAELFYLKGLPRLRVLWLAENPCCGTSPHRYRMTVLRTLPRLQKLDNQAVTEEELSRALSEGEEITAAPEREGTGHGGPKLCCTLSSLSSAAETGRDPLDSEEEATSGAQDERGLKPPSRGQFPSLSARDASSSHRGRNVLTAILLLLRELDAEGLEAVQQTVGSRLQALRGEEVQEHAE", "values": [
      {"measurement": "binding", "setting": "[1]", "value": "binds"},
      {"measurement": "binding", "setting": "[2]", "value": "binds"},
      {"measurement": "binding", "setting": "[3]", "value": "binds"},
      {"measurement": "binding", "setting": "[4]", "value": "no binding"},
      {"measurement": "binding", "setting": "[5]", "value": "binds"}
    ]}
  ]
}
